# This is one part of the list.
# B1: PX14343A-bvu-539-29-539 (Bacteroides vulgatus) (protein)
# chain: DSLTESSSNTFWQTPDDALMALASCYDALQSNQLYNSDQYSLGPLYMDCISDNGGHFNWSGWMEGYDMAMGIHTPSSSIIGSYWKDCYEVISRCNVLIANIDRVDMDASQKAIYQAEAKTIRALMYINLTMTYQDVPFLTAPLTIDEAECEKTDRAAIVAHVMTDLQDAAEVLPQNASSRGHITKGAALSLLGRVALYNEKWDDAIAAYKQVQGLGYSLDPSYAKLFTQSGETSPEIIFAVRYEGPGMSEGAAFNAHWNTPLEAMNGTIDLADAYYCKDGKPTTDTKIAELNGGGGLDVSKPNPAHFENRDPRLYSTLFVPGMLWNGKGGIDTSASNPYANVYGGAAASLSTVYVYKYFDPTDTSNSWDNGQDFYVVRYAEVLLSLAEAMVQKGGYVYSDVTALVNEVRQRADVNMPTVEEVEGTSLSKDELLEVIKHERRVELAFEGLRLFDLYRWKELDKAVANIENERTMYGLAYEARKFNGERDYVWPLPTAELDTNKKLVQHDLWK
# What was measured:
# Assay in all cases: glycan array binding signal (z-score within array); higher = stronger binding
# Conditions in all cases: glycan notation: IUPAC condensed, linker removed
# [1] = biological target: GalNAc(b1-4)GlcNAc(b1-2)Man
# How it was run: (§1)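 Columns mapping to the same glycan were averaged after glycan names were converted to IUPAC-condensed notation. The data come from 3228 arrays in the Consortium for Functional Glycomics database, limited to those with an available protein sequence. Binding is reported as a within-array Z-score averaged across arrays of one protein sequence and across linkers.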
# [2] = biological target: GalNAc(b1-4)GlcNAc(b1-2)Man(a1-3)[GalNAc(b1-4)GlcNAc(b1-2)Man(a1-6)]Man(b1-4)GlcNAc(b1-4)GlcNAc
# How it was run: as §1
# [3] = biological target: GalNAc(b1-4)GlcNAc(b1-3)GalNAc(b1-4)GlcNAc
# How it was run: as §1
# [4] = biological target: GalNAc(b1-4)GlcNAc6S
# How it was run: as §1
# [5] = biological target: GalNAc(b1-6)GalNAc
# How it was run: as §1
# [6] = biological target: GalNAc3S(b1-4)GlcNAc
# How it was run: as §1
# [7] = biological target: GalNAc3S(b1-4)GlcNAc3S
# How it was run: as §1
# [8] = biological target: GalNAc3S(b1-4)[Fuc(a1-3)]GlcNAc
# How it was run: as §1
# [9] = biological target: GalNAc4S6S(b1-4)GlcNAc
# How it was run: as §1
# [10] = biological target: GalNAc6S(b1-4)GlcNAc
# How it was run: as §1
# [11] = biological target: Glc(a1-4)Glc
# How it was run: as §1
# [12] = biological target: Glc(a1-4)Glc(a1-4)Glc(a1-4)Glc
# How it was run: as §1
# [13] = biological target: Glc(a1-6)Glc(a1-6)Glc
# How it was run: as §1
# [14] = biological target: Glc(a1-6)Glc(a1-6)Glc(a1-6)Glc
# How it was run: as §1
# [15] = biological target: Glc(b1-4)Glc
# How it was run: as §1
# [16] = biological target: Glc(b1-6)Glc
# How it was run: as §1
# [17] = biological target: GlcA(b1-3)Gal
# How it was run: as §1
# [18] = biological target: GlcA(b1-3)GlcNAc
# How it was run: as §1
# [19] = biological target: GlcA(b1-6)Gal
# How it was run: as §1
# [20] = biological target: GlcA3S(b1-3)Gal(b1-4)GlcNAc(b1-2)Man
# How it was run: as §1
# [21] = biological target: GlcA3S(b1-3)Gal(b1-4)GlcNAc(b1-3)Gal(b1-4)Glc
# How it was run: as §1
# [22] = biological target: GlcNAc(a1-3)Gal(b1-4)GlcNAc
# How it was run: as §1
# [23] = biological target: GlcNAc(a1-4)Gal(b1-3)GlcNAc
# How it was run: as §1
# [24] = biological target: GlcNAc(a1-4)Gal(b1-4)GalNAc
# How it was run: as §1
# [25] = biological target: GlcNAc(a1-4)Gal(b1-4)GlcNAc
# How it was run: as §1
# [26] = biological target: GlcNAc(a1-4)Gal(b1-4)GlcNAc(b1-3)Gal(b1-4)Glc
# How it was run: as §1
# [27] = biological target: GlcNAc(a1-4)Gal(b1-4)GlcNAc(b1-3)Gal(b1-4)GlcNAc
# How it was run: as §1
# [28] = biological target: GlcNAc(a1-4)Gal(b1-4)GlcNAc(b1-3)Gal(b1-4)GlcNAc(b1-3)Gal(b1-4)GlcNAc
# How it was run: as §1
# [29] = biological target: GlcNAc(a1-4)Gal(b1-4)GlcNAc(b1-3)Gal(b1-4)[Fuc(a1-3)]GlcNAc(b1-3)Gal(b1-4)[Fuc(a1-3)]GlcNAc
# How it was run: as §1
# [30] = biological target: GlcNAc(a1-6)Gal(b1-4)GlcNAc
# How it was run: as §1
# [31] = biological target: GlcNAc(b1-2)Gal(b1-3)GalNAc
# How it was run: as §1
# [32] = biological target: GlcNAc(b1-2)Man(a1-3)[GlcNAc(b1-2)Man(a1-6)]Man(b1-4)GlcNAc(b1-4)GlcNAc
# How it was run: as §1
# [33] = biological target: GlcNAc(b1-2)Man(a1-3)[GlcNAc(b1-2)Man(a1-6)]Man(b1-4)GlcNAc(b1-4)[Fuc(a1-6)]GlcNAc
# How it was run: as §1
# [34] = biological target: GlcNAc(b1-2)Man(a1-3)[GlcNAc(b1-4)][GlcNAc(b1-2)Man(a1-6)]Man(b1-4)GlcNAc(b1-4)GlcNAc
# How it was run: as §1
# [35] = biological target: GlcNAc(b1-2)Man(a1-3)[GlcNAc(b1-4)][GlcNAc(b1-2)Man(a1-6)]Man(b1-4)GlcNAc(b1-4)[Fuc(a1-6)]GlcNAc
# How it was run: as §1
# [36] = biological target: GlcNAc(b1-2)[GlcNAc(b1-4)]Man(a1-3)[GlcNAc(b1-2)Man(a1-6)]Man(b1-4)GlcNAc(b1-4)GlcNAc
# How it was run: as §1
# [37] = biological target: GlcNAc(b1-2)[GlcNAc(b1-4)]Man(a1-3)[GlcNAc(b1-4)][GlcNAc(b1-2)Man(a1-6)]Man(b1-4)GlcNAc(b1-4)GlcNAc
# How it was run: as §1
binder,measurement,setting,value
B1,glycan array binding signal (z-score),[1],-0.367
same,glycan array binding signal (z-score),[2],-0.084
same,glycan array binding signal (z-score),[3],0.044
same,glycan array binding signal (z-score),[4],-0.311
same,glycan array binding signal (z-score),[5],-0.292
same,glycan array binding signal (z-score),[6],-0.514
same,glycan array binding signal (z-score),[7],-0.023
same,glycan array binding signal (z-score),[8],-0.399
same,glycan array binding signal (z-score),[9],-0.297
same,glycan array binding signal (z-score),[10],-0.312
same,glycan array binding signal (z-score),[11],-0.182
same,glycan array binding signal (z-score),[12],0.065
same,glycan array binding signal (z-score),[13],-0.375
same,glycan array binding signal (z-score),[14],-0.337
same,glycan array binding signal (z-score),[15],-0.377
same,glycan array binding signal (z-score),[16],-0.302
same,glycan array binding signal (z-score),[17],-0.448
same,glycan array binding signal (z-score),[18],-0.241
same,glycan array binding signal (z-score),[19],-0.375
same,glycan array binding signal (z-score),[20],-0.318
same,glycan array binding signal (z-score),[21],-0.242
same,glycan array binding signal (z-score),[22],-0.371
same,glycan array binding signal (z-score),[23],-0.426
same,glycan array binding signal (z-score),[24],-0.259
same,glycan array binding signal (z-score),[25],-0.419
same,glycan array binding signal (z-score),[26],-0.195
same,glycan array binding signal (z-score),[27],-0.254
same,glycan array binding signal (z-score),[28],-0.067
same,glycan array binding signal (z-score),[29],-0.099
same,glycan array binding signal (z-score),[30],-0.284
same,glycan array binding signal (z-score),[31],-0.404
same,glycan array binding signal (z-score),[32],-0.099
same,glycan array binding signal (z-score),[33],-0.074
same,glycan array binding signal (z-score),[34],-0.3
same,glycan array binding signal (z-score),[35],-0.202
same,glycan array binding signal (z-score),[36],-0.16
same,glycan array binding signal (z-score),[37],-0.213
